Where two headings read alike, the source gives them in different places. Peptide text beside a SMILES is read from it.
System: ZIKV (PRVABC59 strain)

Compound	Viral titers (FFU) after exposure of ZIKV to peptide	neutralization of ZIKV by D- and L-form	time at which maximum activity occurs	neutralization of ZIKV by D- and L-form (FIG. 6D)	virucidal activity against ZIKV of natural variants
CC[C@H](C)[C@H](NC(=O)[C@@H](NC(=O)CNC(=O)[C@H](CC(C)C)NC(=O)[C@H](Cc1ccccc1)NC(=O)[C@H](Cc1ccccc1)NC(=O)[C@H](CC(C)C)NC(=O)[C@H](CC(C)C)NC(=O)[C@H](CC(C)C)NC(=O)[C@H](CCSC)NC(=O)[C@@H](N)CO)[C@@H](C)O)C(=O)N[C@@H](CO)C(=O)N[C@@H](CC(C)C)C(=O)N[C@@H](CO)C(=O)N[C@@H](CC(C)C)C(=O)N[C@@H](CS)C(=O)N[C@@H](CCC(N)=O)C(=O)N[C@@H](CC(=O)O)C(=O)N[C@@H](CC(=O)O)C(=O)N[C@@H](CCC(N)=O)C(=O)N[C@@H](CCC(=O)O)C(=O)N[C@@H](CCCNC(=N)N)C(=O)N[C@@H](CS)C(=O)O [Yodha peptide] (H-SMLLLFFLGTISLSLCQDDQERC-OH; N-terminus and C-terminus assumed)	significantly decreased	neutralized ZIKV with comparable efficiency	within the first five minutes	work against ZIKV	
PMLLLFFLGTISLSLCQEERGA [Variant 21]					exhibited activity against ZIKV
SMLLLFFLGTISLSLCEEERDA [Variant 25]					no virucidal effect

— patent US11666630B2, “Polypeptides for managing viral infections” (priority 2016, dated 2023)
